Laboratory results published in PubChem BioAssay AID1671194 (National Center for Advancing Translational Sciences (NCATS), 2021).
Out of some 140,000 compounds screened, about 240 (0.17%) were called active. Inconclusive results, whose numbers are uncertain, are shown with a selection of clear calls. Calls come from the whole dose curve; as a rule, active = well fitted inhibition curve with a large enough effect; inconclusive = small, poorly fitted or top-dose-only effect; inactive = no such curve, though single readings can be large or run the other way. Potencies beside an inconclusive call are fits to weak or partial responses and may not hold up.

Assay: Primary qHTS assay for inhibitors of alpha-synuclein gene (SNCA) expression; note: nearly all actives have a fitted effect of over 45% in size
Conditions: HEK-293 SNCA-luciferase knock-in, luminescence, 24 h; series mostly up to 57.2 µM
Potency is the fitted concentration of half-maximal effect; tags give direction and shape of the fitted curve.

| SMILES | Potency |
| --- | --- |
| CCOC(=O)c1scc(-c2ccc(C)cc2)c1S(=O)(=O)Nc1ccc(OC)c(Cl)c1 | inconclusive: 14.1 µM [inhibitor, single point] |
| CS(=O)(=O)N1C[C@H]2CCN(Cc3cc(F)ccc3F)C[C@H]21 | inconclusive: 31.6 µM [inhibitor, single point] |
| Cc1c(Cl)c(C(=O)N[C@H]2[C@@H]3CCO[C@@H]3[C@@H]2C2CCCC2)nn1C | inactive |
| Clc1ccccc1Nc1ncnc2c1nc1n2CCCCC1 | inconclusive: 39.8 µM [inhibitor, single point] |
| Cc1nc(-n2nc(C)c(Cc3ccc4c(c3)OCO4)c2C)sc1C(=O)Nc1ccc(Cl)cc1 | inconclusive: 7.08 µM [inhibitor, partial curve, poor fit] |
| O=C(Nc1cnc(-c2cccnc2)nc1)C1CCCC1 | inactive |
| N#Cc1ccc(CN2C[C@@H](COCC(N)=O)[C@H](c3ccncc3)C2)cc1 | inactive |
| Cc1cccc(Cn2cccc2CNS(=O)(=O)c2ccc(C)c(C)c2)c1 | inconclusive: 39.8 µM [inhibitor, single point] |
| Cc1ncsc1CN1CCC2(CC1)CN(C1CCC1)CC2CO (centres undefined) | inconclusive: 39.8 µM [inhibitor, single point] |
| O=C(Nc1cccc(Br)c1)c1cc(-c2ccc3c(c2)OCCO3)on1 | inconclusive: 28.2 µM [inhibitor, single point] |
| CCOC(=O)Cc1ccc(NC(=O)N2CC(C)Oc3ccc(Cl)cc32)cc1 (centres undefined) | inconclusive: 5.01 µM [inhibitor, full curve, poor fit] |
| Cc1[nH]nc2ccc(-c3cncc(OC[C@@H](N)Cc4ccccc4)c3)cc12 | active: 0.171 µM |
| O=C(NCc1csc(-c2cnccn2)n1)C1CNCCO1 (centres undefined) | inactive |
| CCNC(=O)c1ccc2c(c1)OCCN(c1cccc(OC(F)(F)F)c1)C2 | inactive |
| Cc1nc2cc(-c3ccccc3)nn2c(C)c1CCC(=O)NCc1cccc(Cl)c1 | inconclusive: 25.1 µM [inhibitor, single point] |
| COc1ccc(CNC(=O)c2nc(S(=O)(=O)Cc3ccccc3)ncc2Cl)cc1 | inconclusive: 39.8 µM [inhibitor, single point] |
| O=C(NCCc1nc(-c2cccnc2)n[nH]1)C1CCC(=O)N(C2CCCC2)C1 (centres undefined) | inactive |
| O=C(Cc1ccccn1)NC1CCN(c2nccc(Nc3ccccc3F)n2)CC1 | inconclusive: 12.6 µM [inhibitor, single point] |
| COCCNC(=O)c1coc(COc2ccc3c(c2)C(c2ccc(C)cc2)N(C(=O)C2CC2)CC3)n1 (centres undefined) | inactive |
| CCC(=O)N(C1CCOCC1)C1CCN(S(=O)(=O)c2ccc(F)cc2)CC1 | inconclusive: 1.58 µM [inhibitor, partial curve, poor fit] |
| NCCCS(=O)(=O)O | inconclusive: 35.5 µM [inhibitor, single point] |
| O=C(NCc1c[nH]c2ncccc12)c1ccccc1F | inconclusive: 20 µM [inhibitor, partial curve, poor fit] |

| SMILES | Potency |
| --- | --- |
| CC(C)OCCCNC(=O)CSc1c2c(nc3ccc(Cl)cc13)CCCC2 | inconclusive: 35.5 µM [inhibitor, single point] |
| CCOc1cc(C2Sc3ccccc3NC3=C2C(=O)c2ccccc23)ccc1O (centres undefined) | inconclusive: 39.8 µM [inhibitor, single point] |
| CC1(C(=O)NCc2ccc(F)cc2)CCCc2cnc(Nc3cccnc3)nc21 (centres undefined) | inactive |
| CCOC(=O)c1ccc(NC(=O)CC2C(=O)N(c3ccc(F)cc3)C(=O)N2Cc2ccc(C)cc2)cc1 (centres undefined) | inconclusive: 39.8 µM [inhibitor, single point] |
| c1ccc2ncc(CNC[C@H]3Cn4c(-c5ccc6c(c5)OCCO6)cnc4CO3)cc2c1 | inconclusive: 56.2 µM [inhibitor, single point] |
| Cc1ccc(CN2CCC3(CC2)CN[S+](=O)([O-])c2ccccc2N3)cc1 | inconclusive: 7.08 µM [inhibitor, single point] |
| CC(C)OC(=O)/C(C#N)=C/c1ccc(-c2ccc(Cl)c(Cl)c2)o1 | inconclusive: 39.8 µM [inhibitor, single point] |
| O=C(NC1CCCC1)c1ccc(OC2CCN(CCCC(F)(F)F)CC2)c(Cl)c1 | inactive |
| CN(C)Cc1cc(C[C@@H]2C[C@H](N(Cc3ccco3)Cc3ccco3)C2(C)C)no1 | inconclusive: 31.6 µM [inhibitor, single point] |
| O=C(NCCCc1ccccc1)C1CCN(C(=O)c2ncn3c2COC(c2ccc(F)cc2)C3)CC1 (centres undefined) | inactive |
| O=C1CO[C@H]2CN(Cc3ccccc3F)C[C@H]2N1c1ccccc1 | inactive |
| COc1cccc(CN2CCOC3(CCN(Cc4ccc(F)cc4F)CC3)C2=O)c1 | inconclusive: 17.8 µM [inhibitor, partial curve, poor fit] |
| CCc1ccc(-c2nc(CSCC(=O)N3CCN(c4ccc(F)cc4)CC3)c(C)o2)cc1 | inconclusive: 15.8 µM [inhibitor, single point] |
| O=C(Cc1cccc(O)c1)N1CC(CNc2ccccc2)C2(C1)CN(c1ccccc1)C2 (centres undefined) | inconclusive: 50.1 µM [inhibitor, single point] |
| O=C(NCc1ccccc1)C1CCN(c2cc(C(F)(F)F)ncn2)CC1 | inconclusive: 10 µM [inhibitor, partial curve, poor fit] |
| Cc1cc(C(=O)NC[C@@H]2CC[C@H]3C[C@@H]2C3(C)C)ccc1Cl | inconclusive: 56.2 µM [inhibitor, single point] |
| CCOC(=O)c1cc(-c2ccccc2)n(-c2cccc(C(=O)N(C)c3ccc(C)cc3)c2)c1C | inconclusive: 12.6 µM [inhibitor, partial curve, poor fit] |
| C[S+](=O)([O-])N1Cc2ccccc2CC2(CCCN(CCc3ccccc3)C2)C1 (centres undefined) | inconclusive: 8.91 µM [inhibitor, partial curve, poor fit] |
| COc1ccccc1N=c1scc(-c2ccc(S(=O)(=O)N3CCCC3)cc2)n1C | inconclusive: 3.55 µM [inhibitor, full curve, poor fit] |
| COCCc1nncn1C1CCN(S(=O)(=O)c2ccccc2C(F)(F)F)CC1 | inconclusive: 8.91 µM [inhibitor, single point] |
| COc1ccc(F)cc1C(=O)NCc1cc2n(n1)CCN(C(=O)N(C)C)C2 | inactive |
| Cc1cccc(C)c1NC(=O)CCS(=O)(=O)c1cccc2nonc12 | inconclusive: 7.08 µM [inhibitor, single point] |

| SMILES | Potency |
| --- | --- |
| CC(=O)Nc1ccc(Nc2ncnc3c2c(-c2ccccc2)cn3-c2ccc(C)c(Cl)c2)cc1 | inconclusive: 7.08 µM [inhibitor, single point] |
| O=C1CCC2(CCCO2)CCN1Cc1cccc(F)c1F (centres undefined) | inactive |
| CCc1cccc(CC)c1N(COC)C(=O)Cn1c(C)nc2ccccc21 | inconclusive: 4.47 µM [inhibitor, full curve, poor fit] |
| CCn1ccnc1CN(C)Cc1cn(Cc2ccccc2)nc1-c1cc2ccccc2o1 | inactive |
| Cc1cc(C)n(Cc2ccc(C(=O)N3CCCCCC3c3nnc(-c4ccccc4)o3)o2)n1 (centres undefined) | inactive |
| COc1ccc(C(=O)N[C@H]2CC[C@]3(C)CCC([C@H](C)C(=O)NCCN4CCOCC4)[C@H](O)[C@H]3[C@@H]2C)cc1 (some centres undefined) | inconclusive: 3.55 µM [inhibitor, partial curve, poor fit] |
| Cc1ccc(Cn2ccn(Cc3cccc(C(F)(F)F)c3)c(=O)c2=O)cc1 | inconclusive: 1 µM [inhibitor, single point] |
| Cc1nn2c(c1-c1ccccc1C(C)C)N(C(=O)Cc1ccccn1)CCC2 | inconclusive: 56.2 µM [inhibitor, single point] |
| CCCCn1c(SCC(=O)Nc2cccc(OC)c2)nc2ccsc2c1=O | inconclusive: 10 µM [inhibitor, partial curve, poor fit] |
| COc1ccc(NC(=O)c2ccco2)cc1NC(=O)C(C)Oc1ccc(Cl)cc1Cl (centres undefined) | inconclusive: 28.2 µM [inhibitor, single point] |
| O=S(=O)(c1ccc(Br)cc1)c1nc(-c2ccco2)oc1SCc1ccccc1F | inconclusive: 2.51 µM [inhibitor, full curve, poor fit] |
| CN(C)C[C@@H]1CN(S(C)(=O)=O)C[C@H]1NC(=O)Cc1cccc(F)c1 | inconclusive: 7.08 µM [inhibitor, single point] |
| COc1ccc(-c2noc([C@@H]3Cc4nc[nH]c4CN3Cc3ccc(NC(C)=O)cc3)n2)cc1 | inconclusive: 2 µM [inhibitor, full curve, poor fit] |
| CCCCN(CC)C(=O)c1c[nH]c2ccc(S(=O)(=O)Nc3cccc(OC)c3)cc2c1=O | inconclusive: 3.16 µM [inhibitor, single point] |
| CC(C)NC(=O)N1CCN2C(=O)c3cc(-c4ccc5c(c4)OCO5)ccc3NC(=O)[C@H]2C1 | inactive |
| Cc1ccc2oc(-c3cccc(NC(=O)c4cccc5c(Br)cccc45)c3)nc2c1 | inconclusive: 22.4 µM [inhibitor, partial curve, poor fit] |
| COCCN1CCCCCC(O)c2cc(C(=O)N3CCN(c4ccccc4F)CC3)ccc21 (centres undefined) | inconclusive: 14.1 µM [inhibitor, single point] |
| CCc1ccccc1S(=O)(=O)N1CCCC(Cn2c(C3CC3)nc3cccnc32)C1 (centres undefined) | inactive |
| COc1ccc(-c2cc(C[C@@H]3CC[C@H](O)[C@@H](CNCc4ccccc4OC)O3)no2)cc1 | inactive |
| c1ccc(CCc2noc(-c3ccc(N4CCCOCC4)nc3)n2)cc1 | inactive |
